Experimental data: the supplement of paper PMC8728848
The other results are listed elsewhere or left out.

Legend:
Test in all cases: glycan array binding signal (z-score within array); higher = stronger binding
Details in all cases: glycan notation: IUPAC condensed, linker removed
[1] = biological target: Gal(a1-3)Gal(b1-4)GlcNAc(b1-2)Man(a1-3)[Gal(a1-3)Gal(b1-4)GlcNAc(b1-2)Man(a1-6)]Man(b1-4)GlcNAc(b1-4)GlcNAc
In short: (§1)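 The binding signal is a Z-score computed within each array and averaged over linkers. Arrays of the same protein sequence at different concentrations or buffers were also averaged together. Data originate from 3228 arrays in the Consortium for Functional Glycomics database, kept only where the protein sequence was available.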

[2] = biological target: Gal(a1-3)Gal(b1-4)GlcNAc(b1-3)GalNAc
In short: as §1

[3] = biological target: Gal(a1-3)Gal(b1-4)GlcNAc(b1-6)GalNAc
In short: as §1

[4] = biological target: Gal(a1-3)Gal(b1-4)[Fuc(a1-3)]GlcNAc
In short: as §1

[5] = biological target: Gal(a1-3)Gal(b1-4)[Fuc(a1-3)]GlcNAc(b1-2)Man(a1-3)[Gal(a1-3)Gal(b1-4)[Fuc(a1-3)]GlcNAc(b1-2)Man(a1-6)]Man(b1-4)GlcNAc(b1-4)GlcNAc
In short: as §1

Gal(a1-3)GalNAc = biological target: Gal(a1-3)GalNAc
In short: as §1

[6] = biological target: Gal(a1-3)[Gal(a1-4)]Gal(b1-4)GlcNAc
In short: as §1

[7] = biological target: Gal(a1-4)Gal(b1-3)GlcNAc(b1-2)Man(a1-3)[Gal(a1-4)Gal(b1-3)GlcNAc(b1-2)Man(a1-6)]Man(b1-4)GlcNAc(b1-4)GlcNAc
In short: as §1

Gal(a1-4)Gal(b1-4)Glc = biological target: Gal(a1-4)Gal(b1-4)Glc
In short: as §1

Gal(a1-4)Gal(b1-4)GlcNAc = biological target: Gal(a1-4)Gal(b1-4)GlcNAc
In short: as §1

[8] = biological target: Gal(a1-4)Gal(b1-4)GlcNAc(b1-2)Man(a1-3)[Gal(a1-4)Gal(b1-4)GlcNAc(b1-2)Man(a1-6)]Man(b1-4)GlcNAc(b1-4)GlcNAc
In short: as §1

[9] = biological target: Gal(a1-4)Gal(b1-4)GlcNAc(b1-3)Gal(b1-4)Glc
In short: as §1

Gal(a1-4)GlcNAc = biological target: Gal(a1-4)GlcNAc
In short: as §1

Gal(a1-6)Glc = biological target: Gal(a1-6)Glc
In short: as §1

Gal(b1-2)Gal = biological target: Gal(b1-2)Gal
In short: as §1

Gal(b1-3)Gal = biological target: Gal(b1-3)Gal
In short: as §1

Gal(b1-3)Gal(b1-4)GlcNAc = biological target: Gal(b1-3)Gal(b1-4)GlcNAc
In short: as §1

Gal(b1-3)GalNAc = biological target: Gal(b1-3)GalNAc
In short: as §1

[10] = biological target: Gal(b1-3)GalNAc(a1-3)[Fuc(a1-2)]Gal(b1-4)Glc
In short: as §1

[11] = biological target: Gal(b1-3)GalNAc(a1-3)[Fuc(a1-2)]Gal(b1-4)GlcNAc
In short: as §1

Gal(b1-3)GalNAc(b1-3)Gal = biological target: Gal(b1-3)GalNAc(b1-3)Gal
In short: as §1

[12] = biological target: Gal(b1-3)GalNAc(b1-3)Gal(a1-4)Gal(b1-4)Glc
In short: as §1

[13] = biological target: Gal(b1-3)GalNAc(b1-4)Gal(b1-4)Glc
In short: as §1

[14] = biological target: Gal(b1-3)GalNAc(b1-4)[Neu5Ac(a2-3)]Gal(b1-4)Glc
In short: as §1

Gal(b1-3)GlcNAc = biological target: Gal(b1-3)GlcNAc
In short: as §1

[15] = biological target: Gal(b1-3)GlcNAc(a1-3)Gal(b1-4)GlcNAc
In short: as §1

[16] = biological target: Gal(b1-3)GlcNAc(a1-6)Gal(b1-4)GlcNAc
In short: as §1

Gal(b1-3)GlcNAc(b1-2)Man = biological target: Gal(b1-3)GlcNAc(b1-2)Man
In short: as §1

[17] = biological target: Gal(b1-3)GlcNAc(b1-2)Man(a1-3)[Gal(b1-3)GlcNAc(b1-2)Man(a1-6)]Man(b1-4)GlcNAc(b1-4)GlcNAc
In short: as §1

[18] = biological target: Gal(b1-3)GlcNAc(b1-2)Man(a1-3)[Gal(b1-3)GlcNAc(b1-2)Man(a1-6)]Man(b1-4)GlcNAc(b1-4)[Fuc(a1-6)]GlcNAc
In short: as §1

[19] = biological target: Gal(b1-3)GlcNAc(b1-2)Man(a1-3)[GlcNAc(b1-4)][Gal(b1-3)GlcNAc(b1-2)Man(a1-6)]Man(b1-4)GlcNAc(b1-4)GlcNAc
In short: as §1

[20] = biological target: Gal(b1-3)GlcNAc(b1-2)[Gal(b1-3)GlcNAc(b1-6)]Man(a1-6)[Gal(b1-3)GlcNAc(b1-2)Man(a1-3)]Man(b1-4)GlcNAc(b1-4)GlcNAc
In short: as §1

[21] = biological target: Gal(b1-3)GlcNAc(b1-3)Gal(b1-3)GlcNAc
In short: as §1

[22] = biological target: Gal(b1-3)GlcNAc(b1-3)Gal(b1-4)Glc
In short: as §1

[23] = biological target: Gal(b1-3)GlcNAc(b1-3)Gal(b1-4)GlcNAc
In short: as §1

[24] = biological target: Gal(b1-3)GlcNAc(b1-3)Gal(b1-4)GlcNAc(b1-2)Man(a1-3)[Gal(b1-3)GlcNAc(b1-3)Gal(b1-4)GlcNAc(b1-2)Man(a1-6)]Man(b1-4)GlcNAc(b1-4)GlcNAc
In short: as §1

[25] = biological target: Gal(b1-3)GlcNAc(b1-3)Gal(b1-4)GlcNAc(b1-2)[Gal(b1-3)GlcNAc(b1-3)Gal(b1-4)GlcNAc(b1-6)]Man(a1-6)[Gal(b1-3)GlcNAc(b1-3)Gal(b1-4)GlcNAc(b1-2)Man(a1-3)]Man(b1-4)GlcNAc(b1-4)[Fuc(a1-6)]GlcNAc
In short: as §1

B1: FliD (Clostridium difficile) (protein)
chain: MSSISPVRVTGLSGNFDMEGIIEASMIRDKEKVNKAKQDQQIVKWKQEIYRDIIKESKNLYDKYLNGDSPNSITNKKAYSATRITSSDESIIVAKGSAGAEKINYQFAVSQMAEPAKVTIKLNSSDPIVQQFPPNASGASSLNIGGVNIPISEQDTTSTIVSKINSLCADNDIRASYSEMTGELIISRKQTGSSSDIDLKVIGNDSLAGQIASDNGITFTTDASGTKSAVVYGKNLEADVTDDQGRVTHISKEQNSFKIDNIDYNVNSKGSAKLVSVTDTEEATKNMKAFVDDYNALMDKVYGLVTTKKSKDYPPLTDEQKDDMTTEEIEKWEKKAKEGILRNDDELRAFVEDIQSMFFGDADTIIALRKLGISEHENYNKKGQISFNADTFSKALIDDSDKVYKALAGYSSNYDDKGMFEKLKKIVFEYSGSSASKLTKKAGMENSSSASQNVYSKQIAEQERNISRLVEKMNDKEKRLYAKYSALESLLNKYSSQMNYFSQAQGN
B1 was tested. Which “glycan array binding signal (z-score)” value [1] did it give?
The value was 0.665.

And the “glycan array binding signal (z-score)” value [2]?
Its value is -0.19.

What about the “glycan array binding signal (z-score)” value [3] of the same binder?
Its value is -0.204.

What about the “glycan array binding signal (z-score)” value [4] of the same binder?
The value was 0.134.

What about the “glycan array binding signal (z-score)” value [5] of the same binder?
Its value is -0.093.

What about the “glycan array binding signal (z-score)” value (Gal(a1-3)GalNAc) of the same binder?
Its value is -0.255.

And the “glycan array binding signal (z-score)” value [6]?
Its value is 0.673.

And the “glycan array binding signal (z-score)” value [7]?
Its value is 0.553.

What about the “glycan array binding signal (z-score)” value (Gal(a1-4)Gal(b1-4)Glc) of the same binder?
Its value is -0.264.

What about the “glycan array binding signal (z-score)” value (Gal(a1-4)Gal(b1-4)GlcNAc) of the same binder?
The value was -0.161.

And the “glycan array binding signal (z-score)” value [8]?
Its value is 0.556.

And the “glycan array binding signal (z-score)” value [9]?
Its value is 0.027.

And the “glycan array binding signal (z-score)” value (Gal(a1-4)GlcNAc)?
The value was 1.22.

What about the “glycan array binding signal (z-score)” value (Gal(a1-6)Glc) of the same binder?
Its value is 0.118.

And the “glycan array binding signal (z-score)” value (Gal(b1-2)Gal)?
The value was 1.49.

And the “glycan array binding signal (z-score)” value (Gal(b1-3)Gal)?
Its value is -0.262.

What about the “glycan array binding signal (z-score)” value (Gal(b1-3)Gal(b1-4)GlcNAc) of the same binder?
Its value is -0.236.

What about the “glycan array binding signal (z-score)” value (Gal(b1-3)GalNAc) of the same binder?
The value was -0.087.

What about the “glycan array binding signal (z-score)” value [10] of the same binder?
The value was 0.117.

What about the “glycan array binding signal (z-score)” value [11] of the same binder?
The value was -0.18.

What about the “glycan array binding signal (z-score)” value (Gal(b1-3)GalNAc(b1-3)Gal) of the same binder?
Its value is -0.2.

And the “glycan array binding signal (z-score)” value [12]?
The value was -0.127.

What about the “glycan array binding signal (z-score)” value [13] of the same binder?
Its value is -0.164.

What about the “glycan array binding signal (z-score)” value [14] of the same binder?
Its value is -0.222.

And the “glycan array binding signal (z-score)” value (Gal(b1-3)GlcNAc)?
The value was -0.197.

And the “glycan array binding signal (z-score)” value [15]?
The value was -0.293.

What about the “glycan array binding signal (z-score)” value [16] of the same binder?
Its value is -0.181.

And the “glycan array binding signal (z-score)” value (Gal(b1-3)GlcNAc(b1-2)Man)?
Its value is 0.052.

And the “glycan array binding signal (z-score)” value [17]?
Its value is -0.026.

What about the “glycan array binding signal (z-score)” value [18] of the same binder?
Its value is -0.117.

And the “glycan array binding signal (z-score)” value [19]?
Its value is -0.034.

What about the “glycan array binding signal (z-score)” value [20] of the same binder?
The value was -0.175.

And the “glycan array binding signal (z-score)” value [21]?
Its value is -0.141.

And the “glycan array binding signal (z-score)” value [22]?
Its value is -0.245.

What about the “glycan array binding signal (z-score)” value [23] of the same binder?
The value was -0.24.

What about the “glycan array binding signal (z-score)” value [24] of the same binder?
The value was -0.106.

What about the “glycan array binding signal (z-score)” value [25] of the same binder?
Its value is 0.01.
